We go through 43 molecules from article PMC4336329 (PLoS ONE, 2015).

Hit rate of the full screen: of about 310,000 compounds, about 14,000 (4.5%) showed an effect of 50% or more. Effects have a minus sign here. The list shows a part of the results.
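Note: peak tail current of the secondary pulse compared with the same well before compound.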

For this test, the target named is human ether-à-go-go-related gene (hERG) potassium channel (human, UniProt Q12809). Put plainly: primary screen, population patch clamp on CHO cells stably expressing hERG.
Sequence of human ether-à-go-go-related gene (hERG) potassium channel (Q12809 whole entry, looked up): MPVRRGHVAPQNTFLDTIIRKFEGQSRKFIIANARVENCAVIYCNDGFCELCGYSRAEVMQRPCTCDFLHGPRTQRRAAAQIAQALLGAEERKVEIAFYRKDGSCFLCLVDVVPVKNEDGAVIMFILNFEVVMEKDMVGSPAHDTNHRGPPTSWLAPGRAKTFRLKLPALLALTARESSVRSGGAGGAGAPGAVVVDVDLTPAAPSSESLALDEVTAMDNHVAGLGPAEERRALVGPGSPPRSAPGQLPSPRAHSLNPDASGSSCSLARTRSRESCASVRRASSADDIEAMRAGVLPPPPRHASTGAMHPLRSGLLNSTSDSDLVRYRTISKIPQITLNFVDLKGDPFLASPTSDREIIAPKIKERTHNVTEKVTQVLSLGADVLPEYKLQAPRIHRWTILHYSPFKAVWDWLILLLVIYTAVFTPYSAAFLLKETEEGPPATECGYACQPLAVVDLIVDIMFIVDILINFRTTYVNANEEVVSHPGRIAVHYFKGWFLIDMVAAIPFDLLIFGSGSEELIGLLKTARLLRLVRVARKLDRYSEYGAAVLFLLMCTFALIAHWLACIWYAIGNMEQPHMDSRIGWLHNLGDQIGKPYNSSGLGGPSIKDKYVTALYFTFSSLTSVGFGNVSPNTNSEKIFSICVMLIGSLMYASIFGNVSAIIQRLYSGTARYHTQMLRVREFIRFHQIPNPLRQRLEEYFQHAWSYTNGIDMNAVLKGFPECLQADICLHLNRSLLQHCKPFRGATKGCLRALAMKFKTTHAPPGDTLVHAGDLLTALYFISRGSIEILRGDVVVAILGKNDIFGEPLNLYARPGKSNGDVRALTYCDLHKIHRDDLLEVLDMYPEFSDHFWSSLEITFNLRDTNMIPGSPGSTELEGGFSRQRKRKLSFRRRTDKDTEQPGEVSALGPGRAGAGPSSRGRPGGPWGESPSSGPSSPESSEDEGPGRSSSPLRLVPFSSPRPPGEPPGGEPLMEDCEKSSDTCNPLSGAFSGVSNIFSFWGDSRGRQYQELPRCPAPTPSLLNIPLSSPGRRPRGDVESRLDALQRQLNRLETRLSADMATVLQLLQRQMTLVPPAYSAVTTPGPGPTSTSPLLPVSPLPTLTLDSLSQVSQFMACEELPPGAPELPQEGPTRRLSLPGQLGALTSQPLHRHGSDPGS
Turning to `CC(=O)N1CCN(C(=O)c2ccc(S(=O)(=O)Nc3ccccc3Cl)cc2)CC1`, the “hERG current change (%, negative = inhibition) at 10uM” value is listed as 9.8%.
Next, `CC(=O)c1ccc2c(c1)C1C=CCC1C(c1ccc(S(=O)(=O)N3CCOCC3)cc1)N2` (stereo not shown): 13.5%.
Consider `CCC(Oc1ccccc1)C(=O)Nc1ccccc1C(=O)N1CCN(C)CC1` (stereo not shown), for which the “hERG current change (%, negative = inhibition) at 10uM” value was 0.0528%.
In the case of `Cc1c(C)c(C)c2[nH]c(=S)[nH]c2c1C`, the “hERG current change (%, negative = inhibition) at 10uM” value is recorded as 24.9%.
The result for `Cc1ccc(NS(=O)(=O)c2ccc(C(=O)N3CCC3)cc2)cc1` reads 15.7%; that for `Cc1ccc(NC2=NC(c3ccc(F)cc3)n3c(nc(C)cc3=O)N2)cc1` (stereo not shown), 19%.
The result for `N/C(=N\OC(=O)c1ccccc1Cl)c1cccnc1` reads -13.3%; that for `O=C(/C=C/c1ccc([N+](=O)[O-])cc1)OCC(=O)N1c2ccccc2Sc2ccccc21`, -7.57%; that for `COCCCn1c(CCC(=O)O)ccc1-c1ccc(F)cc1`, 7.93%.
Next, `Cc1ccc(C)c(Nc2c([N+](=O)[O-])ccc3nonc23)c1`: 20.6%; `Clc1ccccc1-c1nn2c(-c3ccncc3)nnc2s1`: -7.89%.
In the case of `CCOCCCN(C(=O)Cn1nnc(-c2ccc(OC)c(OC)c2)n1)C(C(=O)NCC1CCCO1)c1ccc(F)cc1` (stereo not shown), the “hERG current change (%, negative = inhibition) at 10uM” value is listed as -12.8%.
The result for `Cc1nnsc1-c1nc2ccccc2[nH]1` reads 2.78%.
Consider `COc1ccc2oc(=O)c(/C(C)=N/Nc3ccccc3)cc2c1`, for which the “hERG current change (%, negative = inhibition) at 10uM” value is on record as -2.36%.
The result for `COC(=O)Cc1c(C)c2ccc(OCC(=O)N3CCOCC3)cc2oc1=O` reads 4.17%; that for `CCOc1ccc(NC(=O)CCC(=O)NNC(=O)c2ccco2)cc1`, 12.1%.
Next, `Cc1nc2c(-c3ccc(F)cc3)c(C)nn2c(C)c1CCC(=O)NCc1ccco1`: -19.9%; `CCN(CC)C(=O)CSc1nc(COc2ccccc2)nc2ccccc12`: -5.2%.
Next, `CCc1ccccc1N(CC(=O)NC(C)C)C(=O)CCC(=O)Nc1nccs1`: -2.53%; `N#Cc1ccsc1NC(=O)CN1CCN(c2ccccc2O)CC1`: -4.95%; `COCCN(C(=O)CCl)C(C(=O)NC1CCCCC1)c1ccccc1C` (stereo not shown): 3%.
As to `Cn1nnc(NC(=O)c2ccccc2F)n1`, the “hERG current change (%, negative = inhibition) at 10uM” value is -6.49%.
For `O=C(NCCCN1CCOCC1)C(=O)NCC1OCCCN1S(=O)(=O)c1cc(F)ccc1F` (stereo not shown), the “hERG current change (%, negative = inhibition) at 10uM” value is listed as 13.2%.
Next, `COc1ccc(COC(=O)NC2CCN(S(=O)(=O)c3ccc(OC)cc3)CC2)cc1`: -2.98%; `CCOC(=O)c1c(C)[nH]c(C(=O)COC(=O)CNC(=O)C2CCCCC2)c1C`: -0.682%; `Cc1cc(C)c(C)c(S(=O)(=O)N2CCN(C(=O)C3CCC3)CC2)c1C`: -21%.
For the molecule `O=C(CNC(=O)c1ccc(Cl)cc1Cl)OCC(=O)N1CCCC1=O`, the “hERG current change (%, negative = inhibition) at 10uM” value was -5.3%.
Next, `O=C(Nc1cccc2ncccc12)c1ccccc1[N+](=O)[O-]`: 11.2%.
Regarding `COc1ccc(-n2nc3c(c2NC(=O)c2cc(Br)ccc2Cl)CS(=O)C3)cc1` (stereo not shown), the “hERG current change (%, negative = inhibition) at 10uM” value was -43.4%.
In the case of `O=C(CCC(=O)c1ccccc1)NCCOc1ccccc1`, the “hERG current change (%, negative = inhibition) at 10uM” value was determined as 8.68%.
The result for `O=C(Nc1ccccc1Cl)c1ccc2c(=O)n3c(nc2c1)CCC3` reads -6.14%; that for `Cc1cccc(N2CCN(CC3CCCCC3)CC2)c1C`, 26.9%.
The result for `C=CCNCC(=O)Nc1ccccc1SCC(=O)Nc1ccsc1C(=O)OC` reads -30.7%.
In the case of `O=C(NCc1ccc2c(c1)OCO2)c1cnc2n(c1=O)CCS2`, the “hERG current change (%, negative = inhibition) at 10uM” value is reported as 0.134%.
Next, `COc1ccc(C)cc1NC(=O)c1cccc(C(=O)Nc2cc(C)ccc2OC)c1`: -13.3%.
The result for `COCCN1C(=O)C(=O)/C(=C(/O)c2cccc(OC)c2)C1c1ccco1` (stereo not shown) reads 24.8%.
Next, `Cc1nc2ccc(C(=O)N3c4ccccc4CC3C)cc2s1` (stereo not shown): -14%.
For the molecule `NNC(=O)c1ccc(Cl)cc1Cl`, the “hERG current change (%, negative = inhibition) at 10uM” value is listed as 24.1%.
The result for `Cc1cc(OCC(=O)Nc2ccc(N3CCCC3)cc2)cc(C)c1Cl` reads 0.549%; that for `COCc1cc(C)nc2sc(C(=O)Nc3ccccc3F)c(N)c12`, 10.2%.
The result for `CC(C)(C)N(Cc1ccccc1)C(=O)c1ccc2c(c1)OCCO2` reads -9.12%.
Next, `N=C(N)c1c(O)n(C2CCCCC2)c(=O)n(C2CCCCC2)c1=O`: 18.5%; `COc1ccc(NC(=O)Nc2nnc(N3CCCCC3C)s2)cc1OC` (stereo not shown): 7.76%.
